Here are results for 50 molecules from PubChem BioAssay AID2326 (National Center for Advancing Translational Sciences (NCATS), 2010).

Structures are written as SMILES. About 1,100 (0.41%) of roughly 270,000 compounds were called active. Roughly 3% stayed inconclusive and do not appear here. Calls come from the whole dose curve. This is a selection; strong and weak results do not stand in their true shares. The source gives no active or inactive call for entries shown without one.
Potency is the fitted concentration of half-maximal effect.

A short description of the assay: qHTS Assay for Inhibitors of Influenza NS1 Protein Function. Note: actives are rising curves; nearly all actives have a fitted effect of over 50% in size. The settings on record: activity, positive = more growth: at 46.1 µM (top of the series). The source says: NIH Chemical Genomics Center [NCGC]
NIH Molecular Libraries Probe Centers Network [MLPCN]
Assay Submitter (PI): Daniel Engel
Influenza is a world-wide public health problem and emerging forms of the virus have the potential to cause a pandemic of equal or greater magnitude to the outbreaks recorded in 1918, 1957 or 1968. Vaccine development is proceeding and there also exist two classes of anti-influenza compounds. However these therapeutic modalities are neither fully effective nor widely enough available to fulfill global needs. In addition their potential usefulness against newly emergent strains is not known. Efforts are needed to develop novel agents against influenza virus, including broad-spectrum agents. Identification of small molecules that inhibit NS1 function either directly or by interfering with specific cellular pathways may be a key to increasing our defense against the virus.
We have miniaturized and optimized a cell based assay in which NS1 from influenza A is expressed in the budding yeast S. cerevisiae. NS1 is a multi-functional protein that counters the host innate immune response and facilitates viral versus cellular gene expression. Expression of NS1 causes a pronounced slow growth phenotype in yeast due to its intrinsic molecular activities. Small molecules that suppress the slow growth phenotype can be identified by a straightforward growth recovery assay using optical density (OD) as the measurement. The same yeast strain not expressing NS1 was used as positive control in the yeast growth recovery assay.
The yeast S. cerevisiae control and NS1 expressing cells were kindly supplied by laboratory of Dr. Daniel Engel, University of Virginia. Yeast starter cultures were stored in single use aliquots at -80C.
1. Yeast culture medium per liter: 1.2 g Yeast Nitrogen Base (w/out amino acids and Ammonium Sulphate), 5.0g Ammonium Sulphate, 0.77g -URA DO (drop-out) Supplement, adjust pH to 6.0. Adjust to 2% glucose prior to inoculating with yeast.
2. Yeast assay medium: 1.2 g Yeast Nitrogen Base (w/out amino acids and Ammonium Sulphate), 5.0g Ammonium Sulphate, 0.77g -URA DO (drop-out) Supplement, adjust pH to 6.0. Adjust to 2% D-galactose prior to inoculating with yeast.
1. Inoculate 100 mls of yeast culture medium with 1 ml of frozen yeast aliquote. Incubate overnight at 30C, 250RPM.
2. Harvest overnight culture at 4000 RPM and wash pellet with 15 mls H2O 3x.
3. Re-suspend washed pellet in 10 mls of yeast assay medium.
4. Prepare a 1:100 dilution of re-suspended culture in yeast assay medium.
5. Dispense 3.5 ul per well of reagents in step 4 in columns 2-48 in a black clear bottom 1536 well plate.
6. Dispense 3.5 ul per well of yeast assay medium in column 1 only.
7. Transfer 23 nl of compound per well.
8. Dispense 3.5 ul per well of yeast assay medium in columns 1-48.
9. Read plate using Viewlux protocol for optical density 600 (OD600) using excitation filter 600nm.
(In general: qHTS replaces the single test concentration by a dilution series.)
As to `Fc1ccc(-c2nnc(Cc3ccc(Cl)cc3)o2)cc1`, the “activity, positive = more growth” value was inactive: -32.3%.

As for `Cc1[nH]c2ccccc2c(=O)c1SC(F)(F)C(F)C(F)(F)F` (stereo not given), the “activity, positive = more growth” value is inactive: -93.4%.

On to `O=C(CN1CCOc2ccccc21)N1CCC(Cc2ccccc2)CC1`, for which the activity, positive = more growth is -68.9%.

Regarding `Cc1cccc(CSc2nnc(-c3ccco3)o2)c1`, the “activity, positive = more growth” value is inactive: -59.7%.

On to `CN[C@H]1C[C@H]2O[C@@](C)([C@H]1OC)n1c3ccccc3c3c4c(c5c6ccccc6n2c5c31)C(=O)NC4`, for which the activity, positive = more growth was found to be 67.4%.

In the case of `O=C(N/N=C/c1cccc(C(F)(F)F)c1)c1ccccc1O`, the “activity, positive = more growth” value was inactive: -19.1%.

Consider `CN(C)S(=O)(=O)c1cccc(-c2nn(-c3ccccc3)cc2/C=C2\SC(=S)NC2=O)c1`, for which the activity, positive = more growth worked out at 35.6%.

Turning to `O=C1CCN(CCc2ccccc2)CCN1[C@H](CSc1ccccc1)c1ccccc1`, the “activity, positive = more growth” value was inactive: -49.7%.

With `CCC(=O)c1ccc(OCC(O)CN2CCCCC2)cc1` (stereo not given), the activity, positive = more growth was found to be 29.6%.

For `CCN1CCN(c2oc(COc3ccc(-c4ccccc4)cc3)nc2C#N)CC1`, the activity, positive = more growth was -82.4%.

With `Cc1ccc(/C=N\NC(=O)C2COc3cc4ccccc4cc3O2)o1` (stereo not given), the activity, positive = more growth was -36%.

With `Nc1ccccc1SCC(=O)Nc1cccc2ccccc12`, the activity, positive = more growth stood at 17.7%.

As to `Cc1c(/C=N/n2cnnc2)c2ccccc2n1CCOc1ccccc1`, the activity, positive = more growth is -89.7%.

`CC(C)Cc1ccc(C(C)C(=O)Nc2ccccc2O)cc1` (stereo not given): the “activity, positive = more growth” value is inactive: -46%.

On to `CCn1nc(C(=O)Nc2ccc3nc(C)sc3c2)c2ccccc2c1=O`, for which the activity, positive = more growth is -33.3%.

Take `CC(C)CC(COCc1ccc(Cl)cc1)N1CCN(C(=O)c2ccc(Cl)cc2Cl)CCC1=O` (stereo not given): the activity, positive = more growth was -44.7%.

For the molecule `CC(=O)Nc1nc2ccc(Br)cc2s1`, the “activity, positive = more growth” value is inactive: -75.4%.

As to `CCCCC(c1nnnn1CS(=O)(=O)c1ccc(C)cc1)N1CCN(c2ccccc2)CC1` (stereo not given), the Potency was active: 7.08 µM.

With `CC1CCCN(c2nc3c(c(=O)n(C)c(=O)n3C)n2CCSc2nc3ccccc3s2)C1` (stereo not given), the activity, positive = more growth is -92.1%.

Consider `Fc1ccc(-[n+]2nc(Nc3ccccc3)sc2-c2c3ccccc3cc3ccccc23)cc1`, for which the activity, positive = more growth was -148%.

On to `O=c1oc2ccccc2cc1-c1ccc(O)cc1`, for which the activity, positive = more growth was -45.4%.

With `N#CC1=C(N)N2C(=C(C#N)C13CCCCC3)SC1CCCCC12O` (stereo not given), the activity, positive = more growth is -32.7%.

With `Cc1ccn(-c2ccc(NC(=O)c3cccs3)cc2)n1`, the “activity, positive = more growth” value was inactive: -70.9%.

For the molecule `CC1CN(S(=O)(=O)c2ccc(NC(=O)c3cc(-c4ccccc4O)n[nH]3)cc2)CC(C)O1` (stereo not given), the activity, positive = more growth was -48%.

Consider `O=C(c1ccco1)N1CCN(c2c(-c3ccccc3)c3cc(Cl)ccc3[nH]c2=O)CC1`, for which the activity, positive = more growth was -43.2%.

Regarding `Cc1ccccc1-c1nc(CS(=O)CC(=O)N2CCC3(CC2)OCCO3)c(C)o1` (stereo not given), the Potency was active: 1.12 µM.

On to `Cc1nn(CCc2n[nH]c(=S)n2-c2ccc(F)c(Cl)c2)c(C)c1[N+](=O)[O-]`, for which the activity, positive = more growth was determined as 35.8%.

Take `CC(=O)NC(c1ccc(C(C)C)cc1)c1ccc2cccnc2c1O` (stereo not given): the “activity, positive = more growth” value is inactive: -122%.

Consider `O=C(CNc1cccc(F)c1)N1CCc2ccccc2C1`, for which the “activity, positive = more growth” value is inactive: -34%.

Turning to `O=C(Nc1cnn(C23CC4CC(CC(C4)C2)C3)c1)c1cnn2c(C(F)(F)F)cc(-c3ccco3)nc12`, the activity, positive = more growth was -31.4%.

As to `Cc1ccc(-c2nnc(Sc3nc4ccccc4o3)c3ccccc23)cc1`, the activity, positive = more growth was -38%.

For the molecule `CCc1ccc2oc(-c3cc(N)cc(C)c3O)nc2c1`, the Potency was active: 14.1 µM.

As to `Cn1c(=O)c2c(nc(CN3CCc4ccccc4C3)n2Cc2ccccc2F)n(C)c1=O`, the activity, positive = more growth was -43.2%.

In the case of `CC1CCN(Cc2c(O)ccc3c2O/C(=C\c2ccco2)C3=O)CC1`, the Potency was active: 8.91 µM.

With `N#CCCN1CCN(C(=S)c2ccc(-c3cc(Cl)ccc3Cl)o2)CC1`, the “activity, positive = more growth” value is inactive: -29.7%.

Take `COc1ccc(/C=C(\NC(=O)c2ccc([N+](=O)[O-])cc2)C(=O)NCCCN2CCOCC2)cc1`: the activity, positive = more growth was determined as 31.5%.

As to `Cc1cc2c(cc1C)C(c1ccccc1OC(C)C)CC(=O)N2` (stereo not given), the “activity, positive = more growth” value is inactive: -45.2%.

`Cc1cc(Cl)c(S(=O)(=O)N2CCN(c3ccccn3)CC2)cc1OCC(=O)NC1CCCCC1`: the “activity, positive = more growth” value is inactive: -33.5%.

With `N#Cc1nc(-c2ccc(OCc3ccccc3)cc2)oc1NCCN1CCOCC1`, the activity, positive = more growth was -74.8%.

`Cc1ccc2cc(/C=C/C(=O)c3ccco3)c(Cl)nc2c1`: the “activity, positive = more growth” value was inactive: -41.1%.

Consider `CCc1cc(OCCCCNCc2ccccc2)ccc1Cl`, for which the “activity, positive = more growth” value was inactive: -31.3%.

Turning to `CCc1cccc(NC(=O)CS(=O)Cc2nc(-c3ccc(C)cc3)oc2C)c1` (stereo not given), the activity, positive = more growth is -65.7%.

Take `Cc1cc(C)c(S(=O)(=O)/N=C2/C=C(Sc3ncn[nH]3)C(=O)c3ccccc32)cc1C`: the activity, positive = more growth is -16.6%.

In the case of `O=[N+]([O-])c1cc(-n2cnnn2)ccc1N1CCC(Cc2ccccc2)CC1`, the activity, positive = more growth is -76.6%.

As to `CN(C)c1ccc(/C=C/C=C2/SC(=S)N(c3ccccc3)C2=O)cc1`, the activity, positive = more growth came out at 37.9%.

As to `CC(C)CCN(C)c1ccc(/C=N/n2cnnc2)cc1`, the activity, positive = more growth was -47.9%.

As for `COC(=O)c1ccc(Nc2nnc(-c3ccc(C)c(S(=O)(=O)NCC4CCCO4)c3)c3ccccc23)cc1` (stereo not given), the “activity, positive = more growth” value is inactive: -46.2%.

Consider `COC(=O)c1sc(NC(=O)c2ccc(OC)cc2OC)nc1C`, for which the activity, positive = more growth stood at 36.3%.

In the case of `C#CCOc1ccc(/C=C2/C(=O)N(c3cccc(C(=O)O)c3)N=C2C)cc1OC`, the Potency is active: 11.2 µM.

Consider `CC(=O)c1c(C)[nH]c(C(=O)OCC(=O)Nc2sc3c(c2C#N)CCC(C)C3)c1C` (stereo not given), for which the “activity, positive = more growth” value is inactive: -39.1%.
